The IC50 comes from the fitted curve, where viability falls to half of the control; fits outside the tested doses are given as limits. AUC sums up the same curve from the lowest dose to the 256-fold higher top dose: 1 means no effect, lower means more sensitive. For part of these data: A top dose marked as inferred is not printed in the source and was worked back from the curve model.
Assays:
Assay in all cases: Viability of human cancer cell lines after 72 h of drug (GDSC screen)
Roscovitine = compound: CC[C@H](CO)Nc1nc(NCc2ccccc2)c2ncn(C(C)C)c2n1 [Roscovitine]; settings: top dose 16 µM; top dose inferred
Method: (§1)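 Human cancer cell lines in 384-well plates, medium with 10% serum, drug for 72 h over a 256-fold dose range (nine 2-fold or five 4-fold steps up to the top dose). Adherent lines were fixed and stained with the nucleic acid dye Syto60, suspension lines read with resazurin; signal relative to control wells, capped at 0 and 100%. One two-parameter sigmoid per drug and line, fitted in a mixed model over all curves with the slope shared within a line.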

IOX2 = compound: O=C(O)CNC(=O)c1c(O)c2ccccc2n(Cc2ccccc2)c1=O [IOX2]; settings: top dose 0.1 µM; top dose inferred
Method: as §1

Mitomycin C = compound: CO[C@@]12[C@H](COC(N)=O)C3=C(C(=O)C(C)=C(N)C3=O)N1C[C@@H]1N[C@@H]12 [Mitomycin C]; settings: top dose 16 µM
Method: as §1

Midostaurin = compound: CO[C@@H]1[C@H](N(C)C(=O)c2ccccc2)C[C@H]2O[C@]1(C)n1c3ccccc3c3c4c(c5c6ccccc6n2c5c31)C(=O)NC4 [Midostaurin]; settings: top dose 0.512 µM; top dose inferred
Method: as §1

NVP-BHG712 = compound: Cc1ccc(C(=O)Nc2cccc(C(F)(F)F)c2)cc1Nc1nc(-c2cccnc2)nc2c1cnn2C [NVP-BHG712]; settings: top dose 10.24 µM; top dose inferred
Method: as §1

Bosutinib = compound: COc1cc(Nc2c(C#N)cnc3cc(OCCCN4CCN(C)CC4)c(OC)cc23)c(Cl)cc1Cl [Bosutinib]; settings: top dose 2 µM
Method: as §1

Row | Cell Line | AUC (Roscovitine) | IC50 (Roscovitine) [µM] | AUC (IOX2) | IC50 (IOX2) [nM] | AUC (Mitomycin C) | IC50 (Mitomycin C) [nM] | AUC (Midostaurin) | IC50 (Midostaurin) [nM] | AUC (NVP-BHG712) | IC50 (NVP-BHG712) [µM] | AUC (Bosutinib) | IC50 (Bosutinib) [nM]
1 | MZ7-mel (melanoma, adherent) | 0.975 | > 16 | 0.984 | > 100 | 0.382 | 467 | 0.945 | > 512 | 0.505 | 0.661 |  | 
2 | NB5 (neuroblastoma, adherent) | 0.971 | > 16 | 0.981 | > 100 | 0.426 | 625 |  |  | 0.844 | 7.47 | 0.981 | > 2000
3 | NB7 (neuroblastoma, adherent) | 0.983 | > 16 | 0.92 | > 100 | 0.603 | 1950 | 0.906 | > 512 | 0.942 | > 10.2 |  | 
4 | NCI-H748 (small cell lung carcinoma, suspension) | 0.91 | > 16 |  |  | 0.192 | 89.3 | 0.941 | > 512 | 0.972 | > 10.2 |  | 
5 | NCI-H1355 (lung adenocarcinoma, adherent) | 0.932 | > 16 | 0.971 | > 100 | 0.266 | 157 | 0.885 | > 512 | 0.978 | > 10.2 |  | 
6 | NCI-H1975 (lung adenocarcinoma, adherent) | 0.904 | > 16 | 0.978 | > 100 | 0.457 | 749 |  |  | 0.955 | > 10.2 | 0.848 | 1840
7 | NCI-H2171 (small cell lung carcinoma, suspension) | 0.978 | > 16 |  |  | 0.58 | 1610 | 0.916 | > 512 | 0.991 | > 10.2 |  | 
8 | NCI-H2196 (small cell lung carcinoma, adherent) | 0.982 | > 16 |  |  | 0.477 | 865 | 0.973 | > 512 | 0.885 | > 10.2 |  | 
9 | NK-92MI (lymphoid neoplasm, suspension) | 0.922 | > 16 |  |  | 0.205 | 147 | 0.752 | 159 |  |  |  | 
10 | P32-ISH (Burkitt lymphoma, suspension) | 0.99 | > 16 | 0.992 | > 100 |  |  | 0.857 | 262 | 0.599 | 1.12 | 0.932 | 1920
11 | PSN1 (pancreas, adherent) | 0.908 | > 16 | 0.991 | > 100 | 0.065 | < 62.5 |  |  | 0.704 | 2.16 | 0.983 | > 2000
12 | RL95-2 (endometrium, adherent) | 0.943 | > 16 | 0.985 | > 100 |  |  | 0.873 | 485 | 0.881 | > 10.2 | 0.905 | > 2000
13 | RPMI-8402 (T-cell lymphoblastic leukaemia, suspension) | 0.891 | 13.3 | 0.989 | > 100 |  |  | 0.912 | > 512 | 0.7 | 2.1 | 0.931 | > 2000
14 | RS4-11 (leukaemia, suspension) | 0.886 | 15.1 | 0.988 | > 100 | 0.124 | 73.4 |  |  | 0.85 | 6.78 |  | 
15 | SCC-3 (B-cell lymphoma, suspension) | 0.887 | 9.45 |  |  | 0.114 | 107 | 0.997 | > 512 | 0.997 | > 10.2 |  | 
16 | SCC-15 (head and neck, adherent) | 0.96 | > 16 | 0.978 | > 100 | 0.45 | 695 | 0.872 | > 512 | 0.952 | > 10.2 |  | 
17 | SIG-M5 (acute myeloid leukaemia, suspension) | 0.828 | 6.73 |  |  | 0.069 | 66.1 | 0.81 | 192 | 0.188 | 0.106 |  | 
18 | SU-DHL-1 (anaplastic large cell lymphoma, suspension) | 0.972 | > 16 |  |  | 0.214 | 201 | 0.997 | > 512 | 0.928 | 8.15 |  | 
19 | SU-DHL-8 (B-cell lymphoma, suspension) | 0.832 | 9.25 | 0.985 | > 100 | 0.216 | 158 | 0.897 | > 512 | 0.565 | 0.95 |  | 
20 | SW872 (soft tissue, adherent) | 0.977 | > 16 | 0.986 | > 100 | 0.034 | < 62.5 | 0.854 | 345 | 0.978 | > 10.2 |  | 
21 | TALL-1 (T-cell lymphoblastic leukaemia, suspension) | 0.935 | > 16 |  |  | 0.639 | 2370 | 0.99 | > 512 | 0.969 | > 10.2 |  | 
22 | TC-71 (Ewing sarcoma, adherent) | 0.992 | > 16 | 0.992 | > 100 | 0.52 | 1120 |  |  | 0.91 | 10.2 |  | 
23 | TE-10 (oesophagus, adherent) | 0.932 | > 16 | 0.981 | > 100 | 0.158 | 91.6 | 0.923 | > 512 | 0.985 | > 10.2 |  | 
24 | TE-441-T (rhabdomyosarcoma, adherent) | 0.947 | > 16 |  |  | 0.559 | 1440 | 0.923 | > 512 | 0.961 | > 10.2 |  | 
25 | TK (B-cell lymphoma, suspension) | 0.978 | > 16 | 0.982 | > 100 |  |  | 0.935 | > 512 | 0.897 | > 10.2 | 0.982 | > 2000
26 | UACC-812 (breast, adherent) | 0.985 | > 16 |  |  | 0.818 | 8610 | 0.991 | > 512 | 0.947 | > 10.2 |  | 
